Assay results published in the RNAGym collection of RNA variant scans (doi:10.1073/pnas.2313332121).
Variants at the background level are over-represented here.

B1: TPR 5TU (parent)
chain: GGAUCUUCUCGAUCUAACAAAAAAGACAAAUCUGCCACAAAGCUUGAGAGCAUCUUCGGAUGCAGAGGCGGCAGCCUUCGGUGGCGCGAUAGCGCCAACGUUCUCAACUAUGACACGCAAAACGCGUGCUCCGUUGAAUGGAGUUUAUCAUG

Variants of: B1
Assay: polymerase ribozyme fitness, log enrichment relative to wild type (log ratio); higher = more active; in vitro selection for triplet polymerase activity
Method in brief: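 Each subunit of a heterodimeric triplet polymerase ribozyme was represented by a PCR-built, transcribed mutant library that underwent triplicate single-round in vitro selection with frozen incubation at −7 °C. Extended constructs were recovered by gel excision, streptavidin-bead capture and RT-PCR, and Illumina sequencing of input and output libraries kept genotypes with ≥10 input reads and ≥1 read per output. Fitness is the logarithm of genotype enrichment relative to wild-type enrichment, from inverse-variance-weighted replicate averages, with a logarithm base of 2.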

Row | Variant | polymerase ribozyme fitness (log ratio)
1 | GGAUCUUCUCGAUCUAACAAAAAAGACAAAUAUGCCACAAAGCUUGAGAGCAUCUUCGGAUGCAGAGGCGGCAGCCUUCGGUAGCGCCAUAGCGCCAACGUUCUCAACUAUGACAGGCAAAACGCGUGCUCCGUUGAAUCGAGUUUAUCAUG [C32A G83A G88C C116G G140C] | -4.04
2 | GGAUCUUCUCGAUCUAACAAAAAAGACAAAUAAGCCACAAAGCUUGAGAGCAUCUUCGGAUGCAGAGGCGGCAGCCUUCGGUGGGGCGCUAGCGCCAACGUUCUCAACUAUGACACGCAAAACGCGUGCUCCGUUGAAUGGAGUUUAUCAUG [C32A U33A C85G A89C] | ≤ -4.2
3 | GGAUCUUCUCGAUCUAACAAAAAAGACAAAUAUGCCACAAAGCAUGAGAGCAUCUUCGGAUGCAGAGGCGACAGCCUUCGGUGGCGAGAUAGCGCCAACGUUCUCUACUAUGACACGCAAAACGCGUGCUCCGUUGGAUGGAGUUUAUCAUG [C32A U44A G71A C87A A106U A137G] | ≤ -4.2
4 | GGAUCUUCUCGAUCUAACAAAAAAGACAAAUAUGCCACAAAGCUUGAGAGCAUCUUCGGAUGCAGAGGCGGCAGCCUUCGGCGGCGCGAUAGCGCCAACGUUCUCAACUAUGACACGCAAAACGCGUGCUCCGUUGAAUGGAGUUUAUCAUG [C32A U82C] | ≤ -4.2
5 | GGAUCUUCUCGAUCUAACAAAAAAGACAAAUGUGCCACAUAGCUUGAGAGCAUCUUUGGAUGCAGAGGCGGCAGCCUUCGGUGGCGCGAUAGCGCCAACGUUCUCAACUAUGACACGCAAAACGCGUGCUCCGUGGAAUGGAGUUUAUCAUG [C32G A40U C57U U135G] | ≤ -4.2
6 | GGAUCUUCUCGAUCUAACAAAAAAGACAAAUGUGCCACAUAGCUUGAGAGCAUCUUCGGAUGCAGAGGCGGCAGCCUUCGGUGGCCCGAUAGCGCCAACGUUCUCAACUAUGUCACGCAAAACGCGUGCUCCGUUGAAUGGAAUUUAUCAUG [C32G A40U G86C A113U G143A] | ≤ -4.2
7 | GGAUCUUCUCGAUCUAACAAAAAAGACAAAUGUGCCACAAAGCUUGAGCGCAUCUUCGGAUGCAGAGGCGGCAGCCUUCGGUGGCGCGAUAGCGCCAACGUUCUCAACUAUGACACGCAAAACGCGUGCUCCGUUGAAUGGAGUUUAUCAUG [C32G A49C] | ≤ -4.2
8 | GGAUCUUCUCGAUCUAACAAAAAAGACAAAUGUGCCACAAAGCUUGAGAGCUUCUUCGGAUGCAGAGGCGGCAGCCUUCGGUGGCGCGAUAGCGCCAAUGUUCUCGACUAUGACACGCAAAACUCGUGCUACGUUGAAUGGAGUUUAUCAUG [C32G A52U C99U A106G G124U C131A] | ≤ -4.2
9 | GGAUCUUCUCGAUCUAACAAAAAAGACAAAUGUGCCACAAAGCUUGAGAGCAUCUUCGGCUGCAGAGGCGGCAGCUUUGGGUGGCGUGAUAGCGCCAACGUUCUCAACUAUGACACGCAAAACGCGUGCUCCGUCGAAUGGAGUUUAUCAUG [C32G A60C C76U C79G C87U U135C] | ≤ -4.2
10 | GGAUCUUCUCGAUCUAACAAAAAAGACAAAUGUGCCACAAAGCUUGAGAGCAUCUUCGGAUGCAGAGGCGGCAGCCUUCGGUGGCGCGUUAGCGCAAACGUUCUCCACUAUGACACGCAAAACGCGUGCUCCGUUGAAAGGAGUUUAUCAUG [C32G A89U C96A A106C U139A] | ≤ -4.2
11 | GGAUCUUCUCGAUCUAACAAAAAAGACAAAUGUGCCACAAAGCUUGAGAGCAUCUUCGGAUGCAGAGGCGGCAGCCUUCGGUGGCGCGAUAGCGCCAACGUUCUCAACUAUGACACGCCAAACGCGUGCUCCGUUGAAUGGAGUUUAUCAUG [C32G A119C] | ≤ -4.2
12 | GGAUCUUCUCGAUCUAACAAAAAAGACAAAUGUGACACAAAGCUUGAGAGCAUCUUCGGAUGCAGAGGCGGCAGCCUUCGGUGGCGCGAUAGCGCCAACGUUCUCAACUAUGACACGCAAAACGCGUGCUCCGUUGAAUGGAGUUUAUCAUG [C32G C35A] | -3.92
13 | GGAUCUUCUCGAUCUAACAAAAAAGACAAAUGUGCGACAAAGCUUGAGAGCAUCUUCGGAUGCAGAGGCGGCAGCCUUCGGUGGCGCGAUCGCGCCAACGCUCUCACCUAUGACACGCAAAACGCGUGCUCCGUUGAAUGGAGUUUAUCAUG [C32G C36G A91C U101C A107C] | ≤ -4.2
14 | GGAUCUUCUCGAUCUAACAAAAAAGACAAAUGUGCCAUAAAGCUUGAGGGCAUCUUCGGAUGCAGAGGAGGCAGGCUUCGGUGGCGCCAUAGCGCCAACGUUAUCGACUAUGACACGCAAAACGCGUGCUCCGUUGAUUGGAGUUUAUCAUG [C32G C38U A49G C69A C75G G88C C103A A106G A138U] | ≤ -4.2
15 | GGAUCUUCUCGAUCUAACAAAAAAGACAAAUGUGCCAUAAAGCUUGAGAGCAUCUUCGGAUGCAGAGGCGGAAGCCUUCGGAGGCGCGAUAGCGCCAACGUUCUCAACUAUGACACGCAGAACGCGUGCUCCGUUGAAUGGAGUUGAUCAUG [C32G C38U C72A U82A A120G U146G] | ≤ -4.2
16 | GGAUCUUCUCGAUCUAACAAAAAAGACAAAUGUGCCAUAAAGCUUGAGAGCAUCUUCAGAUGCAGAGGCGGCAGCCUUCGGAGGCGCGAUAGCGCAAACGUUCGCAACUCUGACACGCAAAACGCGUGCUCCAUUGAAAGGAGUUUAUCAUU [C32G C38U G58A U82A C96A U104G A110C G133A U139A G152U] | ≤ -4.2
17 | GGAUCUUCUCGAUCUAACAAAAAAGACAAAUGUGCCACAAAGCUUGAGAGUAUCUUCCGAUGCAGAGGCGGCAGCCUUCGGUGGCGCGAUAGCGCCUAUGUUCUCAACUAUGUCACGCAAAACGCGUGCUCCGUUGAAUAGAGUUUCUCAUG [C32G C51U G58C A97U C99U A113U G140A A147C] | ≤ -4.2
18 | GGAUCUUCUCGAUCUAACAAAAAAGACAAAUGUGCCACAAAGCUUGAGAGUAACUUCGGAUGCAGAGGCGGCAGCCUUCGGUGGCGCGAUAGCACCAACGAUCUCAACUAUGACACGCAAAGCGCGUGCUCCGUUGAAUGGAGUUUAUCAUG [C32G C51U U53A G94A U101A A122G] | ≤ -4.2
19 | GGAUCUUCUCGAUCUAACAAAAAAGACAAAUGUGCCACAAAGCUUGAGAGCAUAUUCGGAUGCAGAGGCGGCAGUCAUCGGUGGUGCGAUAGCGCCAACGUUCUCGACUAUGACACGCAAAACGCGUGCUCCGUCGAAUGGAGUUUAUCAUG [C32G C54A C75U U77A C85U A106G U135C] | ≤ -4.2
